Laboratory results from the supplement of paper PMC10126150.
Values marked as one replicate rest on one cluster of the flow cell; about a third of the high ones do not repeat.

System: ATP
Test: switch fluorescence ratio, 500 uM ATP over buffer (Cy3 cluster intensity, sum of 5 cycles each) (fold (ratio)); higher = stronger signal-on switching upon ATP binding; sequences stand for … in TCGTCGGCAGCGTCAGATGTGTATAAGAGACAGTTTTTTTTTTTTTTTTTTTTTTTTT…TC
Settings: aptamer strand: ATP DNA aptamer (quencher-CACCTGGGGGAGTATTGCGGAGGAAGG + anchor), 100 nM annealed; ATP concentration: 500 uM; one replicate
In short: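 The fluorescence ratio divides summed target-cycle Cy3 intensity by summed buffer-cycle Cy3 intensity for each cluster and is averaged per switch-domain sequence. Cy3-labelled switching-strand clusters on a modified Illumina MiSeq flow-cell were annealed to 100 nM quencher-labelled ATP aptamer, then imaged in selection buffer and again after 15 min with 500 uM ATP at 22 °C. Five such cycles were run, with NaOH stripping and re-annealing between them, and clusters outside 100-1000 RFU were excluded.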
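Note: ATP exposure 15 min at 22 °C before imaging.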

Sequence | switch fluorescence ratio
AAAACGTTG | 1.04
CGAGGCAGGG | 1.31
TTTAGCGTAT | 1.01
TTACAGTGCG | 0.983
CGGGCGCCTG | 0.993
CGCCCGTTAT | 1.05
TAGCTGTCGT | 1.03
ATATATCACC | 1.07
GATCATTGGT | 1.04
CCTGAGCCAC | 2.49
CTTAAGGTTA | 1.09
ATAGGACGC | 1.01
GGTCGGTCTC | 0.997
AATGCGGGTA | 0.973
TCATAAGTG | 0.983
GGCCGCATGT | 1.42
ATCTAAGGCT | 1
TAACACTTGA | 1
CTGTGGAGTT | 1.02
TAACTAATCA | 0.973
TCGTCAGCCA | 1.13
AGTCCCTGTG | 0.991
AGCTTGCAAA | 1.04
CACCACTGTA | 1.24
TTGACTACTT | 1.03
GGATGGTTTA | 0.996

Sequence | switch fluorescence ratio
TAGAGTCCTT | 1
CAGTTATGTA | 1
AATTACTAGA | 1.02
CCGCGCTGTG | 1.14
AGCATATAAT | 1.06
CGATAGCCGA | 1.01
GGGGGTGCA | 0.984
ACCTGCCTGG | 1.03
TTCAGCT | 0.991
AGGCACACCG | 1.06
CCTTGCGTGG | 1.06
ATTGCAGCGT | 1.04
CCGGACCTTA | 1.09
AATGATGTAT | 1.02
TTGACTTAAC | 1.05
GAGTTCGCCG | 0.972
TCATGTATGC | 1.02
TCGGTTTCAT | 1.01
TACTGGCCAT | 0.97
AGGTCAGAC | 0.984
CCATCCTTTA | 1.02
GTCTAAACT | 0.996
AGGAGATAAT | 0.992
GCTTCGGGG | 0.996
GAAGTTAATA | 1.09
GCATTCAGCC | 1.01

Sequence | switch fluorescence ratio
CACCCACCAT | 1.36
TGGTTGCACA | 1
CATAACAACG | 1.02
TTACTAAATA | 0.989
TTTAATCTTT | 1.01
CGATGGCAGG | 1.07
TAATTGACTC | 1.07
TCCACAAATT | 1.01
GCATTGCCAC | 0.98
TTTAACATTG | 1.01
AAGTGTAGGT | 0.977
CATCCAACGT | 1.04
CGGTGATTGC | 0.992
GGACGCCCTA | 1.06
GGAATAGTGA | 1.01
CCTCAGCAA | 1.12
GGCGGGTGGC | 0.98
AGTGAGATTG | 0.991
AGATGCATAA | 0.98
TTTGGTATCA | 0.969
TACGACGACT | 1.08
AGTTAGCGGG | 0.973
TCGACTTAGT | 0.994
ACTAGATCGC | 1.02
CTATACAAGG | 0.969
CGTAGAGCG | 1.06

Sequence | switch fluorescence ratio
TGGAAAAAGA | 1
CCCGGGTAAC | 1.1
ACACTGAGAG | 1.03
GCCGCAGTGT | 1.57
TCGCAACCGC | 1.7
GGGGACTCGC | 1.01
TATCAATGGT | 0.986
CCTAATCACA | 1.02
TAAGATGAGT | 1.04
TTCCATCC | 1.1
CCTTGATCAC | 1.09
TATGCTGGCC | 0.936
TCTGAGGGGC | 1.04
ATACTGGCGA | 0.998
TCGGGCGGCG | 1.1
GGTACAGTCG | 1.05
CATAGGCATC | 1.07
CATGGCTTAC | 1.52
CGCGCGAGGA | 0.996
ATCAACTTCG | 0.994
TCACTACCAC | 1.3
CCAGAGCGAG | 2.45
CGTTCGAGTC | 1
AACCCGAAAG | 1.02
TAGGCTCTGC | 1.1
GAAGGACCCG | 0.941

Sequence | switch fluorescence ratio
GCCGTGCCTG | 0.924
ACCTTATGTT | 1.03
AGGATTGCCT | 0.965
CGGAATTGAT | 0.982
TACACAAGTA | 1.09
ATCTCAAGTT | 0.995
TGAAGTAA | 1.06
AGGCTATCTA | 0.967
GGAGAAACGC | 0.965
TATAGGTAGG | 0.956
TTGATTTAG | 1
TTCTCGGGAC | 1.03
GGAGTTAGCC | 1.01
CATTGGGTCG | 1.01
GACGCAGGA | 1.29
TGAGTTCTAT | 0.993
CGCAACCTCA | 3.29
TAATTCC | 1.1
TGGGACCATG | 0.964
TATGAGGCG | 0.947
AACTGGGGAG | 1.04
GATAAGGAGC | 0.931
CGGCTTAACA | 0.999
TCGAATAGTT | 1.03
CGCTTTCAAT | 1.03
ACTTTGAACT | 0.985

Sequence | switch fluorescence ratio
GGTGAGAAA | 2.33
GGTGTGAGGC | 1.08
TGAAGTTGGT | 1.03
TTTGGCAACA | 1.07
TCTATTCTTA | 0.963
CGTTGTAGAC | 0.992
CACGGGAGA | 1.02
AACTATCTAA | 1
CTAACCGGCG | 1.1
TCTAAACATG | 1
ACGGGTTATT | 1.04
AACGTTTAAC | 1.17
TTATGTAGCG | 0.973
ATGCGCGTTC | 0.982
TAGATGATAC | 1.07
GCCTTTGACA | 0.987
CTGTCACGCC | 0.99
GCCGGAGGAT | 0.993
TTCGTGGCTG | 0.987
AACTTGCTGT | 1.02
GTTGCAAAGT | 1.13
GGTTATGTTT | 0.995
TGCTGGGCAT | 0.997
AGTTATCTCA | 0.983
CCTAGACTTG | 1.04
GTGTGTTCAG | 0.978

Sequence | switch fluorescence ratio
CGATGCGTGA | 1.02
ATGCTAGGTA | 1.02
GCGTGCATAA | 0.944
GAGACTCGGT | 0.953
GGTTCGTGC | 0.967
GGACACCCTT | 1.06
TTCATAATTG | 1.04
GGGATGGTCA | 1.04
CAATTATAGT | 0.997
GCTTCGGCGG | 1.08
CCGACTAGGT | 1.03
TAACAAGCG | 0.985
TGCGTCACAG | 1.02
AAGAGTTTCA | 1
CATCCTCGTT | 1.08
TTCTTAATCG | 0.972
CCGTGACGAT | 1.12
CTTAGGTGCC | 1.02
CAGACTGTTT | 0.992
TCGAAGCCGA | 1.05
ATGCTTCCGT | 1.17
AGTGAGTCTA | 1.01
ATGATAACGA | 1.01
TTTCGCTGGC | 0.983
AGTCGTGTTC | 1.01
TTCGCTTAG | 1.06

Sequence | switch fluorescence ratio
TAAAGGAGT | 1.02
AAGTTGCCCC | 1
TGGTATATTT | 0.943
CGTTGCTATC | 1.17
ACGTGCCTGC | 1.02
TTAGCTTATA | 1.03
ACGGGAGGAC | 1.02
GAGAATTGCT | 0.994
GGGAGGGTT | 1.03
GAAATTAGGG | 1
GATAGCTGTG | 1.01
TTAAACGTAT | 1.5
AAGTTTGTAC | 1.01
GAATACCCTG | 1.01
CTGAGCGCTG | 1.05
TACTAGTATG | 1.01
TTCTTGCTTT | 1.01
AATTGTGATT | 0.98
TTTGGTATC | 1
